For 67 sequences, switch fluorescence ratio results are on record in the supplement of paper PMC10126150.

Sequences with one replicate were seen in a single cluster, so their values are uncertain.
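Further: ATP exposure 15 min at 22 °C before imaging.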

The test system of this series is ATP. In words: switch fluorescence ratio, 500 uM ATP over buffer (Cy3 cluster intensity, sum of 5 cycles each) (fold (ratio)); higher = stronger signal-on switching upon ATP binding; sequences stand for … in TCGTCGGCAGCGTCAGATGTGTATAAGAGACAGTTTTTTTTTTTTTTTTTTTTTTTTT…TC. To be noted: aptamer strand: ATP DNA aptamer (quencher-CACCTGGGGGAGTATTGCGGAGGAAGG + anchor), 100 nM annealed; ATP concentration: 500 uM; one replicate. Put shortly:
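For every switch-domain sequence, the fluorescence ratio is the mean of per-cluster values, each being summed target-cycle Cy3 intensity over summed buffer-cycle Cy3 intensity. Clusters outside 100-1000 RFU were excluded. On a modified Illumina MiSeq flow-cell, the Cy3-labelled switching-strand clusters were annealed to 100 nM quencher-labelled ATP aptamer, imaged in selection buffer and then after 15 min with 500 uM ATP at 22 °C. Five such cycles were run, with NaOH stripping and re-annealing between them.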
Consider GAATTCAGGA, for which the switch fluorescence ratio came to 0.996. With GTCGTCCAGA the figure was 0.951; with ATAGTGGCA, 1.02; with CTTCATGAAT, 1.

On to CTCGAAATTT, for which the switch fluorescence ratio came out at 0.989. With ACGCTATGTC the figure was 1.14; with ACGATGATTT, 0.948; with TAAAGGTTCA, 0.996. With GGCTGCAATA the figure was 5.09; with AGGGTTCATT, 0.997. With GTCGTTGTCA the figure was 0.982; with GTTTCCGTCG, 1.03; with GTCGGCTAGC, 0.993. Regarding TGACTCGTGC, the switch fluorescence ratio stood at 1.05. On to TGGTCCAGCT, for which the switch fluorescence ratio is 1.04. In the case of CGTCGGTTTC, the switch fluorescence ratio was 1.

As for GGTTCAGGCG, the switch fluorescence ratio was 0.969. With TTGCCATTAA the figure was 0.998.

Take GTTTCAATTT: the switch fluorescence ratio was 1.03.

On to CAGTGTGAG, for which the switch fluorescence ratio amounted to 0.992. Then TGCTACTTGG, with 1.03. For CAGAAACCT, the switch fluorescence ratio came to 4.44.

ACTACGGGGG: the switch fluorescence ratio stood at 0.957.

Regarding AAAAGTTAGT, the switch fluorescence ratio amounted to 0.988.

Take ACTGACGGCG: the switch fluorescence ratio amounted to 1.19. With AAGCGAATTT the figure was 1.04; with TAGGTAACTG, 1.06; with TCACTGCCTA, 1.05.

In the case of TGTGCTGCGA, the switch fluorescence ratio is 1.04. Then AGAGATCGCG, with 1.01; and AGGTAAAAT, with 0.971. With GTGTAGGTGG the figure was 0.999; with TGGAGTCGGG, 1. With AAGACGTTAA the figure was 1.06.

For GGGTCCATAT, the switch fluorescence ratio is 1.04. With TCGTGATGGT the figure was 1.04; with TCGGGTGCAA, 1.68. With TATACGGTAT the figure was 1.17; with TTTTCGGCCG, 1.02. For GAGGGAACGT, the switch fluorescence ratio was 1.04. Then TGGAGGAAGC, with 1.04; and TAAGGAGGTT, with 0.947. Consider TTCATAAGCT, for which the switch fluorescence ratio amounted to 1.01. Then TCTTGATGTC, with 0.848. With ACGGTTGACT the figure was 1.06; with AACCCGTGTC, 1.05. With TCGATGAGG the figure was 1.05; with GCTCGAGTTT, 1.05.

In the case of AACTGATTCT, the switch fluorescence ratio was found to be 1.03. Then AAGCCTACTG, with 1.01; and GGGGACAAGA, with 1.02; and TTGTCGCGAA, with 0.976. Consider CAAACGCCGC, for which the switch fluorescence ratio was found to be 1.81.

In the case of ATTTAGGCGG, the switch fluorescence ratio came to 1.02. Then TAGGTGAAAG, with 0.977; and AGAATAGGGC, with 1.13; and GGTCTAAGGT, with 0.978. With CTCGTTGATA the figure was 1.03. In the case of AAGTTACAGG, the switch fluorescence ratio worked out at 1.08.

As for CGCATTTAAC, the switch fluorescence ratio turned out to be 3.72.

As for TGCCTTTATT, the switch fluorescence ratio stood at 1. Then GGTGTTGCGA, with 0.978. Then ACCTTTATTT, with 1.08. Take CTCGTCAGGT: the switch fluorescence ratio worked out at 1.06. With CCAGTATTGG the figure was 1.05; with CGCTGAGGGA, 1.08. With TGTTGGTCA the figure was 0.996.
